This is one part of the list. These are noisy estimates, calculated here from bound and input reads.

We go through 115 sequences from the BET-seq Pho4 binding data (Le et al. 2018).

The target of this test is T1, Pho4 (S. cerevisiae) (UniProt P07270).
T1 sequence: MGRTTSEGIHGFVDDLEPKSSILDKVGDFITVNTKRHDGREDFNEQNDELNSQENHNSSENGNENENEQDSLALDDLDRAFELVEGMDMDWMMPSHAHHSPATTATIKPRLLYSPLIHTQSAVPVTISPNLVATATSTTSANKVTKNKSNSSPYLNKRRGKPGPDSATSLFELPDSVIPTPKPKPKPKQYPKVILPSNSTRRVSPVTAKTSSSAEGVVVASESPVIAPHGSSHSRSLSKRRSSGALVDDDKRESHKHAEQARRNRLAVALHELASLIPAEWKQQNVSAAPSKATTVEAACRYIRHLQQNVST
Kind of test: relative binding free energy (BET-seq); higher = weaker binding. The note with it: reference: library average.
As for AGGAGCACGTGCGTGT, the “relative binding free energy” value was -0.18 kcal/mol. The result for CGGGTCACGTGGGGTG reads -0.06 kcal/mol; that for ACTGGCACGTGCTGTG, -0.16 kcal/mol; that for TGGGACACGTGCGTTT, 0.11 kcal/mol. With TGTTGCACGTGGGCGT, the “relative binding free energy” value was -0.11 kcal/mol.

With TTAAACACGTGTTTTG, the “relative binding free energy” value is -0.05 kcal/mol.

Take AGGTCCACGTGATTGG: the “relative binding free energy” value turned out to be 0.16 kcal/mol. The result for TGTTTCACGTGGTCCG reads 0.17 kcal/mol; that for GGTGTCACGTGTCATA, 0.2 kcal/mol. Then ATGCTCACGTGGCTGG, with 0.18 kcal/mol; and GCGGTCACGTGGAGGG, with 0.07 kcal/mol.

On to TGGGTCACGTGGAAAG, for which the “relative binding free energy” value worked out at 0.25 kcal/mol.

Turning to TTTAGCACGTGTGTAT, the “relative binding free energy” value was -0.02 kcal/mol. With CTTTTCACGTGGAATA, the “relative binding free energy” value worked out at 0.38 kcal/mol. The result for GCTTGCACGTGTAGGA reads -0.04 kcal/mol; that for ATTCTCACGTGGAGTT, 0.19 kcal/mol. Then AGAGTCACGTGTGGGT, with 0.23 kcal/mol.

CGGTTCACGTGGATAA: the “relative binding free energy” value is 0.25 kcal/mol. Regarding AAGTGCACGTGTATGA, the “relative binding free energy” value is 0.04 kcal/mol.

On to TGCTACACGTGGAGTT, for which the “relative binding free energy” value stood at 0.03 kcal/mol.

As to GGCTTCACGTGTGGTG, the “relative binding free energy” value was 0.31 kcal/mol. Then AGAGCCACGTGTGTGT, with -0.17 kcal/mol.

For the sequence GTGGTCACGTGCAGCG, the “relative binding free energy” value stood at 0.04 kcal/mol. With CGTAACACGTGTGTTT, the “relative binding free energy” value is -0.08 kcal/mol.

Turning to CGTCTCACGTGTTGGA, the “relative binding free energy” value was 0.2 kcal/mol. For the sequence CATGACACGTGTATGT, the “relative binding free energy” value is -0.07 kcal/mol.

For the sequence CGTGTCACGTGCAGGT, the “relative binding free energy” value amounted to 0.1 kcal/mol.

With GGTGGCACGTGTGCAA, the “relative binding free energy” value is -0.09 kcal/mol. The result for AGGATCACGTGTAGTG reads 0.12 kcal/mol; that for CTGGTCACGTGTAGGA, 0.1 kcal/mol; that for TCCAGCACGTGTTGGG, -0.02 kcal/mol. The result for GTGAGCACGTGTTGGA reads 0.04 kcal/mol. The result for AGTTACACGTGGGTAT reads 0.01 kcal/mol. With GGGCGCACGTGGGCCT, the “relative binding free energy” value was -0.08 kcal/mol. The result for TTTTACACGTGCTGCG reads 0.06 kcal/mol; that for ATAGGCACGTGTAAAG, 0.05 kcal/mol. The result for ATGGACACGTGGAGGG reads -0.12 kcal/mol; that for GTGCCCACGTGTTAGT, 0.04 kcal/mol; that for GTTTACACGTGTATGT, 0.11 kcal/mol. CTAGGCACGTGGGCGA: the “relative binding free energy” value is -0.32 kcal/mol. With TGGTGCACGTGAGACG, the “relative binding free energy” value stood at 0.08 kcal/mol. The result for ATGTGCACGTGGCTTA reads -0.18 kcal/mol. The result for TCTTGCACGTGTGGCT reads 0.05 kcal/mol; that for TCTTACACGTGGGGTG, -0.03 kcal/mol. Then GCGGTCACGTGTGTGT, with 0.05 kcal/mol; and GTGGACACGTGATAGC, with 0.21 kcal/mol. With ATGGGCACGTGGCGTA, the “relative binding free energy” value was -0.32 kcal/mol. The result for GGATTCACGTGAATTG reads 0.51 kcal/mol. The result for AGTTACACGTGTTGTT reads 0.23 kcal/mol; that for CTACGCACGTGGGTTG, -0.2 kcal/mol; that for GACGTCACGTGGTGAG, 0.17 kcal/mol. Consider CTTCTCACGTGTTGGG, for which the “relative binding free energy” value turned out to be 0.2 kcal/mol. The result for CGTGACACGTGGGTGG reads -0.18 kcal/mol. The result for TAAAACACGTGTGGGT reads 0.1 kcal/mol. The result for TGGTACACGTGAAGCG reads 0.45 kcal/mol; that for TTTTTCACGTGGTAAT, 0.33 kcal/mol. As to GATTTCACGTGGGCTT, the “relative binding free energy” value was 0.37 kcal/mol. Then CGGTCCACGTGTGGTA, with 0 kcal/mol; and ATACGCACGTGGGGGT, with -0.35 kcal/mol.

CGGTTCACGTGTGATA: the “relative binding free energy” value turned out to be 0.2 kcal/mol. Then GTGTGCACGTGTTTTA, with 0.11 kcal/mol; and TTAGGCACGTGCTAGG, with -0.06 kcal/mol. Then TTGCCCACGTGTTGTG, with -0.2 kcal/mol; and GGGCACACGTGTTTTA, with 0.17 kcal/mol.

As for ACGAGCACGTGGATGG, the “relative binding free energy” value was -0.13 kcal/mol. The result for GTTTGCACGTGGATGC reads 0.19 kcal/mol; that for TTCTGCACGTGTTGAT, -0.01 kcal/mol.

Regarding TCTGTCACGTGATATG, the “relative binding free energy” value was determined as 0.08 kcal/mol. The result for ATGTACACGTGAGTAA reads 0.23 kcal/mol. For TGGTGCACGTGAGATA, the “relative binding free energy” value was determined as 0.18 kcal/mol. For CAGAGCACGTGGTGAG, the “relative binding free energy” value was -0.07 kcal/mol. The result for GCTTGCACGTGATATG reads 0.16 kcal/mol; that for CTTATCACGTGTAGGT, 0.11 kcal/mol. The result for ATGATCACGTGAGTAG reads 0.34 kcal/mol; that for TTTAGCACGTGGTAAT, -0.15 kcal/mol; that for GGGATCACGTGTGACG, 0.12 kcal/mol.

With TTGTACACGTGTACGG, the “relative binding free energy” value was 0.06 kcal/mol. Then CGGGGCACGTGGTTGA, with -0.12 kcal/mol. For the sequence CTTGTCACGTGATATT, the “relative binding free energy” value was 0.08 kcal/mol. In the case of TAGGTCACGTGATTAA, the “relative binding free energy” value turned out to be 0.3 kcal/mol. The result for TAGTACACGTGTTTTT reads 0.11 kcal/mol; that for TAGTGCACGTGTGCGA, 0.1 kcal/mol. The result for GTTCGCACGTGGAGAG reads -0.11 kcal/mol. Then TCCTGCACGTGGGTTT, with -0.14 kcal/mol; and TGCGCCACGTGAGGGT, with 0.11 kcal/mol; and TGAGACACGTGGTGAT, with -0.17 kcal/mol. On to GAAATCACGTGGGTGT, for which the “relative binding free energy” value came to 0.13 kcal/mol. Then GGGTCCACGTGGGTAA, with -0.04 kcal/mol; and GACGTCACGTGATGTG, with 0.16 kcal/mol. Then TTTACCACGTGTTAGA, with 0.13 kcal/mol; and TGTTGCACGTGGACGT, with -0.08 kcal/mol; and TCCTGCACGTGGTGTT, with -0.27 kcal/mol.

In the case of AGGGACACGTGGGATG, the “relative binding free energy” value is -0.04 kcal/mol.

For TTAGGCACGTGGGTTT, the “relative binding free energy” value was -0.19 kcal/mol. As to TGCTTCACGTGTTGGG, the “relative binding free energy” value was determined as 0.37 kcal/mol. Then ATGTTCACGTGTCATG, with 0.12 kcal/mol; and AGCGGCACGTGTCGGT, with -0.04 kcal/mol; and TGGGCCACGTGGTGCG, with -0.23 kcal/mol.

AGGTGCACGTGTTTAA: the “relative binding free energy” value is -0.12 kcal/mol. The result for TTGAGCACGTGGAAAG reads -0.03 kcal/mol; that for GATCTCACGTGTGATT, 0.41 kcal/mol. The result for TCAGGCACGTGTAAGT reads -0.05 kcal/mol; that for ATTCTCACGTGTAGTT, 0.24 kcal/mol; that for AAGTCCACGTGTTGTG, -0.03 kcal/mol. Then TCGGACACGTGGGGAT, with -0.14 kcal/mol; and TGATACACGTGGTGGG, with 0 kcal/mol; and GTCAGCACGTGGTGGT, with 0 kcal/mol. For the sequence ATGTTCACGTGGCGCG, the “relative binding free energy” value worked out at 0.07 kcal/mol. The result for TCGCTCACGTGTTGGT reads 0.09 kcal/mol; that for GGGAGCACGTGTTAAG, -0.07 kcal/mol. With TGGAACACGTGGGTCG, the “relative binding free energy” value was -0.21 kcal/mol. The result for AGTCTCACGTGAGTTG reads 0.35 kcal/mol; that for GGTTTCACGTGGGGAC, 0.27 kcal/mol. The result for AAAGGCACGTGTTTGG reads -0.12 kcal/mol. Take CTTGGCACGTGGGTCT: the “relative binding free energy” value was -0.25 kcal/mol.
